Reference: PubChem BioAssay (Tox21)
“And” between values parts separate entries of the source, which are not always exact repeats. Identical values can stand only once. Inconclusive results, whose numbers are uncertain, are shown with a selection of clear calls. For some assays here: A potency beside an inconclusive call is a rough fit, not a confirmed value. A structure can be active in one record and inactive in another. The source made the active and inactive calls. Unless noted, calls come from the whole dose curve; as a rule, active = well fitted curve in the direction sought with a large enough effect in the repeat runs; inconclusive = weak or mixed curves; inactive = no such curve, though single readings can be large; an effect the other way counts as inactive or inconclusive.

Columns and labels:
[1] = qHTS assay to identify small molecule antagonists of the glucocorticoid receptor (GR) signaling pathway - cell viability counter screen (AID 720693); conditions: GR-bla HeLa viability, CellTiter-Glo luminescence, 18 h, with 5 nM dexamethasone present; viability change, negative = cytotoxic: at 58.5 µM (top of the series) unless noted; note: potency is the fitted concentration of half-maximal effect; nearly all actives have a fitted effect of over 55% in size
[2] = qHTS assay for identifying genotoxic compounds that show differential cytotoxicity against isogenic chicken DT40 cell lines with known DNA damage response pathways - wild type cell line (AID 743012); conditions: DT40 wild type chicken cells viability, CellTiter-Glo, 40 h; activity change, negative = cytotoxicity: at 68.4 µM (top of the series) unless noted; note: potency is the fitted concentration of half-maximal effect; nearly all actives have a fitted effect of over 60% in size
How it was run: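 300 wt DT40 cells/well; cpd (DMSO) pintool-transferred after ~0.5 h at 37 C/5% CO2; 40 h incubation; CellTiter-Glo added, 30 min RT; luminescence read.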

[3] = qHTS assay for identifying genotoxic compounds that show differential cytotoxicity against isogenic chicken DT40 cell lines with known DNA damage response pathways - Rev3 mutant cell line (AID 743014); conditions: chicken DT40 Rev3-/- viability, CellTiter-Glo, 40 h; activity, negative = cytotoxicity: at 68.4 µM (top of the series); note: potency is the fitted concentration of half-maximal effect; nearly all actives have a fitted effect of over 55% in size
[4] = qHTS assay for identifying genotoxic compounds that show differential cytotoxicity against isogenic chicken DT40 cell lines with known DNA damage response pathways - Rad54/Ku70 mutant cell line (AID 743015); conditions: DT40 Rad54/Ku70 mutant viability, CellTiter-Glo, 40 h; activity change, negative = cytotoxicity: at 66.8 µM (top of the series); note: potency is the fitted concentration of half-maximal effect; nearly all actives have a fitted effect of over 60% in size
[5] = qHTS assay to identify small molecule antagonists of the androgen receptor (AR) signaling pathway - cell viability counter screen (AID 743033; note: potency is the fitted concentration of half-maximal effect; nearly all actives have a fitted effect of over 45% in size); conditions: AR-bla HEK293 viability, CellTiter-Glo luminescence, 16 h; activity change, negative = cytotoxicity: at 58.5 µM (top of the series) unless noted
[6] = qHTS assay to identify small molecule antagonists of the thyroid receptor (TR) signaling pathway - cell viability counter screen (AID 743064); conditions: GH3.TRE-Luc viability, CellTiter-Fluor, 24 h; activity change, negative = cytotoxic: at 70.3 µM (top of the series) unless noted; note: potency is the fitted concentration of half-maximal effect; nearly all actives have a fitted effect of over 50% in size
How it was run: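 Viability of T3-stimulated (1 nM final) GH3.TRE-Luc cells is measured by CellTiter-Fluor fluorescence after 23.5 h compound exposure at 37 °C plus 30 min reagent incubation.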

[7] = qHTS assay to identify small molecule antagonists of the thyroid receptor (TR) signaling pathway (AID 743065); conditions: GH3.TRE-Luc, T3-stimulated luciferase inhibition, 23.5 h; series mostly up to 70.3 µM; note: potency is the fitted concentration of half-maximal effect; nearly all actives have a fitted effect of over 55% in size
How it was run: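 GH3.TRE-Luc rat pituitary cells carrying two TR response elements driving luciferase were plated for 4 h, given compound plus 1 nM T3 (final), and incubated 23.5 h at 37 C. ONE-Glo luminescence measured reporter inhibition; CellTiter-Fluor fluorescence tracked cytotoxicity.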

[8] = system: thyroid hormone receptor (rat, GH3 cells); test: qHTS assay to identify small molecule agonists of the thyroid receptor (TR) signaling pathway (AID 743066; calls by dose curve; note: % is set by controls: 0 for no effect and ±100 for the full control effect); conditions: GH3.TRE-Luc cells, TR agonist luciferase, 24 h; activation: at 83.9 µM (top of the series) unless noted
[9] = target: Estrogen receptor (Homo sapiens) (UniProt P03372); test: qHTS assay to identify small molecule antagonists of the estrogen receptor alpha (ER-alpha) signaling pathway (AID 743069; active = well fitted curve in the direction sought with a large enough effect in the signal ratio in the repeat runs, not every such curve was filed as active; inconclusive = weak or mixed curves, or effect the other way; inactive = no such curve, though single readings can be large or run the other way; the % refers to the signal ratio; note: potency is the fitted concentration of half-maximal effect; for activity, negative = inhibition: % is set by controls: 0 for no effect and ±100 for the full control effect); conditions: HEK293 ER-alpha-UAS-bla, beta-lactamase ratio, antagonist mode; activity, negative = inhibition: at 69.4 µM (top of the series) unless noted
How it was run: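 Screening used a UAS-driven beta-lactamase reporter integrated into HEK293 cells expressing ER-alpha, stimulated with 17beta-estradiol alongside test compounds over 18 hr at 37C; signal came from LiveBLAzer B/G FRET fluorescence.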

[10] = qHTS assay to identify small molecule antagonists of the estrogen receptor alpha (ER-alpha) signaling pathway - cell viability counter screen (AID 743074; calls by dose curve; note: potency is the fitted concentration of half-maximal effect; nearly all actives have a fitted effect of over 45% in size); conditions: ERalpha-bla HEK293 viability, CellTiter-Glo luminescence, 18 h; series mostly up to 69.4 µM
[11] = target: Estrogen receptor (Homo sapiens) (UniProt P03372); test: qHTS assay to identify small molecule agonists of the estrogen receptor alpha (ER-alpha) signaling pathway using the BG1 cell line (AID 743079); conditions: BG1Luc4E2 cells, ERE-luciferase agonist, 22 h; activation: at 70.3 µM (top of the series) unless noted; note: potency is the fitted concentration of half-maximal effect; nearly all actives have a fitted effect of over 20% in size
[12] = qHTS assay to identify small molecule antagonists of the estrogen receptor alpha (ER-alpha) signaling pathway using the BG1 cell line - cell viability counter screen (AID 743081); conditions: BG1Luc4E2 viability, CellTiter-Fluor, 22 h; activity change, negative = cytotoxicity: at 70.3 µM (top of the series) unless noted;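 note: compound given together with 17beta-estradiol as the ER stimulus; potency is the fitted concentration of half-maximal effect; nearly all actives have a fitted effect of over 45% in size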
[13] = target: Androgen receptor (Homo sapiens) (UniProt P10275); test: qHTS assay to identify small molecule antagonists of the androgen receptor (AR) signaling pathway (AID 743035; active = well fitted inhibition curve with a large enough effect in the signal ratio in the repeat runs, not every such curve was filed as active; inconclusive = weak or mixed curves, or effect the other way; inactive = no such curve, though single readings can be large or run the other way; the % refers to the signal ratio; note: potency is the fitted concentration of half-maximal effect); conditions: HEK293 AR-UAS-bla, R1881-stimulated, beta-lactamase FRET, 16 h; activity change, negative = inhibition: at 58.5 µM (top of the series) unless noted
How it was run: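 In this cell-based reporter screen, compounds were tested in concentration series against R1881-activated HEK293 cells expressing beta-lactamase under UAS control; after 16 h at 37C, FRET substrate was added and fluorescence read 2 h later.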

[14] = target: Androgen receptor (Homo sapiens) (UniProt P10275); test: qHTS assay to identify small molecule agonists of the androgen receptor (AR) signaling pathway (AID 743036; active = well fitted activation curve with a large enough effect in the signal ratio in the repeat runs, with a control signal flat, not every such curve was filed as active; inconclusive = weak or mixed curves, or effect the other way; inactive = no such curve, though single readings can be large or run the other way; the % refers to the signal ratio; note: potency is the fitted concentration of half-maximal effect); conditions: HEK293 AR-UAS-bla GripTite, beta-lactamase FRET ratio, 16 h; activation: at 62.4 µM (top of the series) unless noted
How it was run: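 Screening used 2,000 AR-bla HEK293 cells per well, treated 16 h at 37C with test compounds in DMSO alongside positive and DMSO-only controls; beta-lactamase activity was then read by LiveBLAzer B/G FRET fluorescence after 2 h at room temperature.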

[15] = target: Androgen receptor (Homo sapiens) (UniProt P10275); test: qHTS assay to identify small molecule antagonists of the androgen receptor (AR) signaling pathway using the MDA cell line (AID 743042; note: potency is the fitted concentration of half-maximal effect; nearly all actives have a fitted effect of over 55% in size); conditions: MDA-kb2 AR-luc, MMTV luciferase, R1881 antagonist, 16 h; series mostly up to 70.3 µM
How it was run: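 MDA-kb2 cells (human breast carcinoma, stably carrying an MMTV-luciferase reporter responsive to AR and GR) were plated at 3,000 cells/well and preincubated 5 hr at 37C, then given compound plus R1881 agonist for 16 h. ONE-Glo luminescence was read.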

[16] = target: Estrogen receptor (Homo sapiens) (UniProt P03372); test: qHTS assay to identify small molecule agonists of the estrogen receptor alpha (ER-alpha) signaling pathway (AID 743075; calls by dose curve; note: potency is the fitted concentration of half-maximal effect); conditions: HEK293 ER-alpha-UAS-bla, beta-lactamase FRET ratio, 18 h; series mostly up to 70.1 µM
[17] = qHTS assay to identify small molecule antagonists of the estrogen receptor alpha (ER-alpha) signaling pathway using the BG1 cell line (AID 743080; calls by dose curve;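 note: BG1 cells stimulated with 17beta-estradiol alongside compound; potency is the fitted concentration of half-maximal effect; nearly all actives have a fitted effect of over 25% in size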); conditions: BG1Luc4E2 ERE-luciferase antagonist mode, luminescence; activity change, negative = inhibition: at 70.3 µM (top of the series) unless noted
How it was run: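 Quantitative HTS on the Tox21 10K library: BG1 cells with endogenous ER-alpha and ERE-luciferase reporter, 17beta-estradiol stimulation, 21.5 h compound exposure, luminescence endpoint with parallel fluorescence cytotoxicity counter-read.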

[18] = qHTS assay to identify small molecule antagonists of the androgen receptor (AR) signaling pathway using the MDA cell line - cell viability counter screen (AID 743041; note: potency is the fitted concentration of half-maximal effect; nearly all actives have a fitted effect of over 45% in size); conditions: MDA-kb2 viability, CellTiter-Fluor, 16 h, cells co-treated with R1881 androgen agonist; viability change, negative = cytotoxic: at 70.3 µM (top of the series) unless noted
How it was run: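 qHTS viability read-out; MDA-kb2 AR-luc; R1881-stimulated; 16 h exposure at 37C, 0% CO2; CellTiter-Fluor, 30 min; fluorescence intensity.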
Tags give direction and shape of the fitted curve or compound fluorescence and quenching.

Sequence of UniProt P10275 (P10275 whole entry, looked up): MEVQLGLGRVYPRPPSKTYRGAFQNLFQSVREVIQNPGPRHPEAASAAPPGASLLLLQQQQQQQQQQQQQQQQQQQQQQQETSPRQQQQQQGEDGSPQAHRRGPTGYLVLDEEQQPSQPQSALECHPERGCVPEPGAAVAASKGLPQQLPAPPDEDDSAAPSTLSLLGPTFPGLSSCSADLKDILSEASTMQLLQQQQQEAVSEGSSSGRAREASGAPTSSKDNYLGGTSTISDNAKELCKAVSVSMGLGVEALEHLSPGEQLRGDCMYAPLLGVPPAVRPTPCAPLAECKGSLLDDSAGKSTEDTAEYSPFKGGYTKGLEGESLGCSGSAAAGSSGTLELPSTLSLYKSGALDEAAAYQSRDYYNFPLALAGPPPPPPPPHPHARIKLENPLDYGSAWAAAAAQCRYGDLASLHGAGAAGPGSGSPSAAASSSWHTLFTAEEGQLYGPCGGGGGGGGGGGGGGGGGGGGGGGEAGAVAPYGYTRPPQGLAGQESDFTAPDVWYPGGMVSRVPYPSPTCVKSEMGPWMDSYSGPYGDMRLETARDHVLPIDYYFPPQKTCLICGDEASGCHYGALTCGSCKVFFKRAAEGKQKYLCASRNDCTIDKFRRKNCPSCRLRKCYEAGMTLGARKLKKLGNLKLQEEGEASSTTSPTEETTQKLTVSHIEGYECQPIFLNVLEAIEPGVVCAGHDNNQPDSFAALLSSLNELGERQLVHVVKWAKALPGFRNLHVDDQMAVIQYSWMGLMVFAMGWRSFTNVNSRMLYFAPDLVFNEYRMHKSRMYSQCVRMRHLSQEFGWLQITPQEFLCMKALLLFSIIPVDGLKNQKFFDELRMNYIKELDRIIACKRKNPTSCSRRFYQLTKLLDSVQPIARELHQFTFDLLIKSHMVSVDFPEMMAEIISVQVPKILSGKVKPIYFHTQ
Sequence of UniProt P03372 (P03372 whole entry, looked up): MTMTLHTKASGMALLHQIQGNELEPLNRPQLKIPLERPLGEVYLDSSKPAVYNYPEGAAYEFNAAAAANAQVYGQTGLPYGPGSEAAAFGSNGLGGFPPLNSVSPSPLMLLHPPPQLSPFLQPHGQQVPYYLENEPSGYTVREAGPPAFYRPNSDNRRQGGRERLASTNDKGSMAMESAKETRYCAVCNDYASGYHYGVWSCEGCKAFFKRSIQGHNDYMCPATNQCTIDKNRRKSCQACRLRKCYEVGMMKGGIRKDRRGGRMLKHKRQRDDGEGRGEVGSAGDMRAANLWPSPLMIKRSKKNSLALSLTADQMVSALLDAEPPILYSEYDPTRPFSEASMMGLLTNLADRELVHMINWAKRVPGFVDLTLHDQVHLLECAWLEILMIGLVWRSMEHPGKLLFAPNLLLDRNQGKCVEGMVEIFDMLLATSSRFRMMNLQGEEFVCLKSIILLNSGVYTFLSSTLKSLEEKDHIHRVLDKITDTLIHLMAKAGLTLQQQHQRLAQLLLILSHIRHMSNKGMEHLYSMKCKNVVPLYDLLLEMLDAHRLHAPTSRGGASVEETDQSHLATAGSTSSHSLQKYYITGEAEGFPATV

| SMILES | Potency [1] | Potency [2] | Potency [3] | Potency [4] | Potency [5] | Potency [6] | Potency [7] | Potency [8] | Potency [9] | activity, negative = inhibition [9] | Potency [10] | Potency [11] | Potency [12] | Potency [13] | Potency [14] | Potency [15] | Potency [16] | Potency [17] | Potency [18] |
| --- | --- | --- | --- | --- | --- | --- | --- | --- | --- | --- | --- | --- | --- | --- | --- | --- | --- | --- | --- |
| CCCCC/C=C\C/C=C\CCCCCCCC(=O)O | inconclusive: 54 µM [cytotoxic, single point] | inconclusive: 53.6 µM [partial curve] and inconclusive: 68.6 µM [cytotoxic, single point] | inconclusive: 68.6 µM [cytotoxic, single point] | inconclusive: 8.49 µM [rising, partial curve, poor fit] | inconclusive: 61.7 µM [cytotoxic, single point] | inconclusive: 67.5 µM [cytotoxic, single point] and inconclusive: 68.6 µM [cytotoxic, single point] | inconclusive: 67.5 µM [inhibitor, single point] | inactive | inconclusive: 27.1 µM [partial curve] and inconclusive: 49 µM [fluorescent, partial curve] | – | – | – | – | – | – | – | – | – | – |
| O=c1c(O)c(-c2ccc(O)c(O)c2)oc2cc(O)cc(O)c12 | inconclusive: 55.4 µM [cytotoxic, single point] | inconclusive: 68.6 µM [cytotoxic, single point] [middle of 4 runs] | inconclusive: 33.5 µM [cytotoxic, single point] | – | – | inconclusive: 48.6 µM [cytotoxic] and active: 30.9 µM and inconclusive: 68.6 µM [cytotoxic, single point] | – | – | inconclusive: 9.52 µM [activator, partial curve, poor fit] and inconclusive: 61.7 µM [fluorescent, single point] and inconclusive: 4.94 µM [activator, full curve] | inconclusive: -33.1% | inconclusive: 62.2 µM [cytotoxic, single point] and inconclusive: 54.9 µM [cytotoxic, single point] | inconclusive: 68.6 µM [activator, single point] | inconclusive: 61.6 µM [cytotoxic, partial curve, poor fit] | – | – | – | – | – | – |
| OCc1c[nH]c2ccccc12 | inconclusive: 54.9 µM [cytotoxic, single point] | active: 30.6 µM | – | – | inconclusive: 6.16 µM [cytotoxic, full curve] | – | active: 54.5 µM | – | inconclusive: 11 µM [fluorescent] | – | inconclusive: 13.8 µM [cytotoxic, partial curve, poor fit] | inconclusive: 11.5 µM [activator] | inconclusive: 6.86 µM [rising, partial curve] | inconclusive: 21.9 µM | inconclusive: 24.5 µM [fluorescent, partial curve, poor fit] | inconclusive: 53.2 µM [inhibitor, partial curve] | active: 4.36 µM [fluorescent] | inconclusive: 27.3 µM | – |
| CC(=O)Oc1ccccc1C(=O)Nc1ncc([N+](=O)[O-])s1 | inconclusive: 9.52 µM [cytotoxic, full curve] | inconclusive: 49.5 µM [cytotoxic, partial curve, poor fit] | active: 10.6 µM and active: 62.4 µM | inconclusive: 62.4 µM [cytotoxic, single point] | – | – | active: 11.9 µM and active: 7.85 µM | inactive | inconclusive: 9.97 µM [fluorescent, full curve] | – | active: 7.56 µM and inconclusive: 3.15 µM [cytotoxic, full curve] | active: 668 nM and inconclusive: 17.6 µM [inhibitor, full curve] | inconclusive: 21.1 µM [cytotoxic, partial curve] and inconclusive: 24.8 µM [cytotoxic, single point] | – | – | – | inconclusive: 0.629 µM [falling, full curve, poor fit] | inconclusive: 23.7 µM [falling, partial curve, poor fit] and inconclusive: 394 nM [rising, partial curve, poor fit] | inconclusive: 12.4 µM [cytotoxic, partial curve] |
